Laboratory results from PubChem BioAssay AID2528 (National Center for Advancing Translational Sciences (NCATS), 2010).
Several values for one entry are separate records, joined by “and”; a condition that tells them apart may be missing. Identical values can stand only once. Out of some 350,000 compounds screened, about 700 (0.2%) were called active. Inconclusive results, whose numbers are uncertain, are shown with a selection of clear calls. Calls come from the whole dose curve; as a rule, active = well fitted inhibition curve with a large enough effect; inconclusive = small, poorly fitted or top-dose-only effect; inactive = flat fitted curve, though single readings scatter. Where the call is inconclusive, the potency comes from a doubtful curve fit.
Note: nearly all actives have a fitted effect of over 35% in size.
Potency is the fitted concentration of half-maximal effect; tags give direction and shape of the fitted curve.
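Throughout, for activity change, negative = inhibition: plate controls were vehicle for no effect and no enzyme for full effect.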

These compounds were tested against RecQ-like DNA helicase BLM (Homo sapiens) (UniProt P54132) (assay: qHTS Assay for Inhibitors of Bloom's syndrome helicase (BLM)). Conditions: recombinant BLM DNA unwinding, fluorescence dequenching; series mostly up to 56.1 µM; activity change, negative = inhibition: at the top concentration.
UniProt P54132, sequence (P54132 whole entry, looked up): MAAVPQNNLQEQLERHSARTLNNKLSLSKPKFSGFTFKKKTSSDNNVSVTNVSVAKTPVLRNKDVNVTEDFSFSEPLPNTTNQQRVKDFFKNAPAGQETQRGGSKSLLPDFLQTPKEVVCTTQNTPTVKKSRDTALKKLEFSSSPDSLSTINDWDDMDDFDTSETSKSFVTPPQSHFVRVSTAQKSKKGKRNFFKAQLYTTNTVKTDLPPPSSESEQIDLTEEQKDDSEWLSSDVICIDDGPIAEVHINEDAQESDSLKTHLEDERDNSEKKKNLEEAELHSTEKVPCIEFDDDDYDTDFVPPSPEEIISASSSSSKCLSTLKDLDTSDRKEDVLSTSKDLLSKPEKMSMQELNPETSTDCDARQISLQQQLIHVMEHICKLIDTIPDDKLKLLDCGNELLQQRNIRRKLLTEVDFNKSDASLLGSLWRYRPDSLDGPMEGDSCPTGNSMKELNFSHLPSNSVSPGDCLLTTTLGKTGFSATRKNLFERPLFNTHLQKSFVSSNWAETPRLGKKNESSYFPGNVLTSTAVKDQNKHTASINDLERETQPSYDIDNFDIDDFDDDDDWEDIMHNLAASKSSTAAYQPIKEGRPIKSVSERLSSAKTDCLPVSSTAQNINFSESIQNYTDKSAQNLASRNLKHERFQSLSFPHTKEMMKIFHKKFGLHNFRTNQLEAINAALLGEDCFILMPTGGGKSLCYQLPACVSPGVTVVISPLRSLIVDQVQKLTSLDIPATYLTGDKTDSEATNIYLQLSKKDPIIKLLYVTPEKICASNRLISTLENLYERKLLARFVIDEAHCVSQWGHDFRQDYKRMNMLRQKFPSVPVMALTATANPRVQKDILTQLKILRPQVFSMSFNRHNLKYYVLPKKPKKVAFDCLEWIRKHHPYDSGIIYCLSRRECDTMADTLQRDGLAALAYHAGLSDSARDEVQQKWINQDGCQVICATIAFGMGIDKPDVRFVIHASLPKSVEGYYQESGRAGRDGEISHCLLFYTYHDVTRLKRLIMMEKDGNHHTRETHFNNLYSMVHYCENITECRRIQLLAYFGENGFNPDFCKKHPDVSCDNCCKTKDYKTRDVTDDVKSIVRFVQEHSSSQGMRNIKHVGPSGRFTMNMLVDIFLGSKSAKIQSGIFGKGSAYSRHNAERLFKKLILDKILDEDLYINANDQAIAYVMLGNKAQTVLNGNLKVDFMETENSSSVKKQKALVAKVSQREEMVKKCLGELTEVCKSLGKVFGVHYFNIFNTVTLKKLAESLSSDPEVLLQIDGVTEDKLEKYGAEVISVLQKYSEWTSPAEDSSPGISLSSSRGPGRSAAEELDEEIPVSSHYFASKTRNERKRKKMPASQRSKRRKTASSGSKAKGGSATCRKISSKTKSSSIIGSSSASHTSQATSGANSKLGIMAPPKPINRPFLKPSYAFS
In the case of `COC(=O)c1c(NC(=O)COC(=O)c2ccc(NC(=O)CC#N)cc2)sc2c1CCCCC2`, the Potency is reported as active: 31.6 µM.
For `OCc1c[nH]c2ccccc12`, the “activity change, negative = inhibition” value was inactive: 3.62%.
`O=C(Nc1cccc(S(=O)(=O)NC2=NCCCCC2)c1)c1cc(-c2ccco2)nc2ccccc12` was tested, and the Potency was inconclusive: 10 µM [inhibitor, partial curve].
For `O=C(Nc1nc(-c2ccccc2)cs1)c1ccccc1NS(=O)(=O)c1ccc(F)cc1`, the Potency was inconclusive: 22.4 µM [inhibitor, single point].
`CC1=NN(c2nc(-c3ccccc3)cs2)C(=O)C1` was tested, and the Potency was inconclusive: 31.6 µM [inhibitor, single point].
For `CCCCOc1ccc(C(=O)N2CCN(CCc3ccncc3)CC2)cc1`, the “activity change, negative = inhibition” value was inactive: 0.556%.
With `O=C(NN1C(=O)/C(=C/C=C/c2ccco2)SC1=S)c1ccccc1O` the Potency was inconclusive: 31.6 µM [inhibitor, single point].
With `C=CCn1c(SCC(=O)c2ccc(O)c(O)c2)nnc1-c1cccnc1` the Potency was inconclusive: 1.41 µM [inhibitor, partial curve].
In the case of `CC(C)(C)c1cc(=O)n(-c2ccccc2)[nH]1`, the Potency is reported as active: 17.8 µM.
`O=C(N/N=C/c1ccc(F)cc1)c1cc(-c2ccco2)nc2ccccc12` was tested, and the Potency was active: 8.91 µM.
With `CN(CCOc1ccccc1)CC(=O)Nc1ccc(S(=O)(=O)N2CCCC2)cc1` the Potency was inconclusive: 28.2 µM [inhibitor, partial curve].
With `CCOC(=O)C1=C(O)/C(=C/c2ccccn2)SC1=Nc1ccc(Cl)cc1` the “activity change, negative = inhibition” value was inactive: -4.69%.
With `N=C1/C(=C\c2coc3ccccc3c2=O)C(=O)N=C2SC(c3ccncc3)=NN12` the Potency was inconclusive: 17.8 µM [inhibitor, partial curve].
For `Cc1ccc(NC(=O)CSc2nnc(-c3ccco3)c(-c3ccco3)n2)cc1`, the Potency was inconclusive: 11.2 µM [inhibitor, partial curve].
`Cc1nnc(SCc2nc(N)nc(Nc3ccccc3)n2)s1` was tested, and the Potency was inconclusive: 39.8 µM [inhibitor, single point].
In the case of `CCOc1ccc2[nH]c(=O)c(CN(Cc3nnnn3Cc3ccco3)C3CCCCC3)cc2c1`, the Potency is reported as inconclusive: 35.5 µM [inhibitor, single point].
`O=C1/C(=C/C=C/c2ccco2)SC(=S)N1NS(=O)(=O)c1ccccc1` was tested, and the Potency was inconclusive: 39.8 µM [inhibitor, single point].
In the case of `CCOCCCNC(=O)c1c(N)n(-c2ccc3c(c2)OCO3)c2nc3ccccc3nc12`, the Potency is reported as inconclusive: 31.6 µM [inhibitor, single point].
`O=c1c(-c2ccccc2)coc2cc(O)cc(O)c12` was tested, and the Potency was active: 22.4 µM.
`COc1ccc(-c2c(C)c3ccc(O)c(CN4CCC(C)CC4)c3oc2=O)cc1OC` was tested, and the “activity change, negative = inhibition” value was inactive: -0.803%.
For `O=C(Nc1ccc(S(=O)(=O)Nc2nccs2)cc1)c1cc(-c2ccncc2)nc2ccccc12`, the Potency was inconclusive: 15.8 µM [inhibitor, partial curve].
For `O=C(O)c1cc(N2N=C(C(F)(F)F)/C(=C/C=C/c3ccco3)C2=O)ccc1Cl`, the Potency was inconclusive: 6.31 µM [inhibitor, full curve, poor fit].
In the case of `CCCCCCCCCCCCCCCCn1cc[n+](Cc2ccccc2)c1C`, the Potency is reported as inconclusive: 39.8 µM [inhibitor, single point].
In the case of `CCOC(=O)N1CCC(NC(=O)c2cccc3c2C(=O)N(CCOC)C3)CC1`, the Potency is reported as inconclusive: 5.62 µM [inhibitor, single point].
`Cc1ccc(CSc2nnc(SCC(=O)N/N=C/C=C/c3ccco3)s2)cc1` was tested, and the Potency was inconclusive: 39.8 µM [inhibitor, single point].
`O=C(N/N=C/c1cn[nH]c1-c1ccc(Cl)cc1)c1ccc([N+](=O)[O-])cc1` was tested, and the Potency was inconclusive: 20 µM [inhibitor, single point].
In the case of `Cc1c(OCC(N)=O)ccc2c(-c3ccccc3)cc(=O)oc12`, the Potency is reported as inconclusive: 39.8 µM [inhibitor, single point].
For `Cc1cnc(CNc2nc(-c3ccc(N(C)C)cc3)nc3ccccc23)cn1`, the Potency was active: 28.2 µM.
With `COC(=O)c1ccc(OCCOc2ccccc2C)cc1` the “activity change, negative = inhibition” value was inactive: -7.85%.
With `O=C(Cc1nnc(NC(=O)c2ccccc2)s1)N/N=C\c1ccc(O)c(O)c1` the Potency was inconclusive: 20 µM [inhibitor, partial curve].
`COC(=O)c1ccccc1NC(=O)c1noc2c1CCC2` was tested, and the Potency was inconclusive: 17.8 µM [inhibitor, partial curve].
`O=C(COC(=O)CNC(=O)c1ccc(-c2ccccc2)cc1)NCc1ccco1` was tested, and the Potency was inconclusive: 28.2 µM [inhibitor, partial curve].
For `CCn1c(SCC(=O)Nc2oc(-c3ccccc3)c(-c3ccccc3)c2C#N)nnc1-c1cc(OC)cc(OC)c1`, the Potency was inconclusive: 15.8 µM [inhibitor, partial curve].
With `CSc1nc(NCCOC(C)=O)c(C#N)c(-c2ccc(C(C)(C)C)cc2)n1` the “activity change, negative = inhibition” value was inactive: -6.79%.
In the case of `COc1cccc(/C=C2/NC(=O)N(CC(=O)Nc3ccc(C)cc3)C2=O)c1OCc1cccc(C(=O)O)c1`, the Potency is reported as inconclusive: 39.8 µM [inhibitor, single point].
For `Cc1cc(C)cc(-n2cccc2/C=C2/C(=N)N3C(=NC2=O)SN=C3S(C)(=O)=O)c1`, the Potency was active: 31.6 µM.
In the case of `CCN(CC)c1ccc2c(-c3ccc(S(=O)(=O)O)cc3S(=O)(=O)[O-])c3ccc(=[N+](CC)CC)cc-3oc2c1`, the Potency is reported as active: 25.1 µM.
`Cc1ccc(CNC(=O)CSc2ncc(S(=O)(=O)c3ccc(Br)cc3)c(=O)[nH]2)cc1` was tested, and the “activity change, negative = inhibition” value was inactive: -10.4%.
With `CC1(C)S[C@@H]2[C@H](NC(=O)[C@H](N)c3ccccc3)C(=O)N2[C@H]1C(=O)O` the Potency was inconclusive: 31.6 µM [inhibitor, single point].
In the case of `Cc1ccc(C(CCN(Cc2ccccc2)C(=O)c2ccco2)c2ccco2)cc1` (configuration not stated), the Potency is reported as inconclusive: 14.1 µM [inhibitor, partial curve].
`COc1cc(/C=C/c2sc3ccccc3[n+]2CCCS(=O)(=O)[O-])ccc1O` was tested, and the Potency was inconclusive: 39.8 µM [inhibitor, single point].
For `O=C(N/N=C/c1cc(Cl)cc([N+](=O)[O-])c1O)NC12CC3CC(CC(C3)C1)C2`, the Potency was inconclusive: 31.6 µM [inhibitor, single point].
With `FC(F)(F)c1cc(Oc2ccccc2Cl)nc(-c2ccccn2)n1` the Potency was active: 4.47 µM.
In the case of `CCOC(=O)N1CCC(NC(=O)c2cccc3c2C(=O)N(c2ccc(OC)cc2)C3)CC1`, the Potency is reported as inconclusive: 17.8 µM [inhibitor, partial curve].
In the case of `Nc1ccc(N)c(C(=O)O)c1`, the Potency is reported as active: 5.62 µM.
In the case of `CCCCCn1c(NC(=O)c2ccco2)c(S(=O)(=O)c2ccc(C)cc2)c2nc3ccccc3nc21`, the Potency is reported as inconclusive: 28.2 µM [inhibitor, single point].
In the case of `C=CCOc1c(Br)cc(C2C3=C(CCCC3=O)N(C)C3=C2C(=O)CCC3)cc1OCC`, the Potency is reported as inconclusive: 22.4 µM [inhibitor, partial curve, poor fit].
In the case of `Oc1ccc(/C=C/c2nc(-c3ccccc3O)n(-c3ccccc3)n2)c(O)c1`, the Potency is reported as inconclusive: 22.4 µM [inhibitor, partial curve].
With `COc1cc(/C=C2\SC(=Nc3ccccc3)N(CCc3c[nH]c4ccccc34)C2=O)ccc1OC(C)C(=O)O` (configuration not stated) the Potency was inconclusive: 39.8 µM [inhibitor, single point].
For `O=C(c1ccccc1)c1cccc(NC(=O)c2ccco2)c1`, the Potency was inconclusive: 25.1 µM [inhibitor, single point].
With `O=C(O)c1ccccc1O` the Potency was “inactive”.
With `CC(=O)Oc1cc(-c2coc3cc(OC(C)=O)c(OC(C)=O)c(OC(C)=O)c3c2=O)cc(OC(C)=O)c1OC(C)=O` the Potency was active: 11.2 µM.
In the case of `COc1ccc2c3c(c(=O)oc2c1)C1O[C@](c2ccsc2)(Cc2cc(C#N)ccc21)O3`, the Potency is reported as inconclusive: 3.16 µM [inhibitor, single point].
`Cc1ccc(C(=O)N/N=C\c2ccc(-c3ccc(Cl)c(Cl)c3)o2)cn1` was tested, and the Potency was inconclusive: 39.8 µM [inhibitor, single point].
`CCc1cc(=O)n2[nH]c(C)c(-c3ccccc3OC)c2n1` was tested, and the “activity change, negative = inhibition” value was inactive: -3.1%.
For `CCN1CCN(Cc2c(O)ccc3oc(C)c(C(=O)Nc4ccc(OC)cc4)c23)CC1`, the “activity change, negative = inhibition” value was inactive: 3.55%.
In the case of `Cc1cc(N/N=C/c2ccc(O)cc2)c2cccc(C)c2n1`, the Potency is reported as inconclusive: 28.2 µM [inhibitor, single point].
`N#C/C(=C\c1ccc(O)c(O)c1)C(=O)NCCCc1ccccc1` was tested, and the Potency was inconclusive: 31.6 µM [inhibitor, partial curve] and inconclusive: 31.6 µM [inhibitor, single point].
`COc1ccc(S(=O)(=O)c2c(N)n(Cc3ccco3)c3nc4ccccc4nc23)cc1` was tested, and the Potency was inconclusive: 17.8 µM [inhibitor, single point].
`C=C[C@](C)(O)CCC1C(=C)CCC2[C@@](C)(CO)CCC[C@@]12C` (some centres not stated) was tested, and the “activity change, negative = inhibition” value was inactive: -2.39%.
In the case of `COc1cccc(CNS(=O)(=O)c2ccc3[nH]c4c(c3c2)CCCCC4)c1`, the “activity change, negative = inhibition” value is reported as inactive: -16.9%.
`CCc1ccc(NC(=O)Cn2c(=O)n(Cc3ccc(C)cc3)c(=O)c3cccnc32)cc1` was tested, and the “activity change, negative = inhibition” value was inactive: 2.37%.
For `CCC12CN3CC(CC)(CN(C1)C3c1c[nH]c3ccccc13)C2=O` (configuration not stated), the “activity change, negative = inhibition” value was inactive: -3.59%.
`O=[N+]([O-])c1ccc(Sc2cccc[n+]2[O-])c2nonc12` was tested, and the Potency was inconclusive: 28.2 µM [inhibitor, single point].
With `CSc1nnc(-c2ccco2)c(-c2ccco2)n1` the Potency was inconclusive: 20 µM [inhibitor, partial curve].
`c1cc(-c2noc(CCC3CCCC3)n2)ccn1` was tested, and the “activity change, negative = inhibition” value was inactive: 0.143%.
In the case of `Oc1c(Br)cc(/C=N/Nc2ccc(Cl)nn2)cc1Br`, the “activity change, negative = inhibition” value is reported as inactive: -6.63%.
